In PubChem BioAssay AID1347165 (National Center for Advancing Translational Sciences (NCATS), 2019):
Values joined by “and” are separate entries in the source; they are usually repeats but may differ in a detail not shown here. Equal entries are not always repeated. The whole screen tested about 220,000 compounds, of which about 5,700 (2.6%) were called active. The shares of active, inactive and inconclusive entries below differ from those in the screen. Calls follow the shape of the dose curve; as a rule, active = well fitted inhibition curve with a large enough effect; inconclusive = small, poorly fitted or top-dose-only effect; inactive = no such curve, though single readings can be large or run the other way. Where the call is inconclusive, the potency comes from a doubtful curve fit.
Also: nearly all actives have a fitted effect of over 70% in size.
For activity change, negative = inhibition in this document: 0% is about no effect.
Potency is read from the fitted curve at half-maximal effect; tags tell the direction and shape of the fitted curve.

Each compound was assayed against Lysine-specific demethylase 5B (Homo sapiens) (UniProt Q9UGL1) (assay: Primary screen for KDM5B Histone Demethylases FDH-coupled qHTS). Settings: FDH-coupled NADH fluorescence (FDH is formaldehyde dehydrogenase); activity change, negative = inhibition: at 57.7 µM (top of the series) unless noted.
Chain of UniProt Q9UGL1 (Q9UGL1 whole entry, looked up): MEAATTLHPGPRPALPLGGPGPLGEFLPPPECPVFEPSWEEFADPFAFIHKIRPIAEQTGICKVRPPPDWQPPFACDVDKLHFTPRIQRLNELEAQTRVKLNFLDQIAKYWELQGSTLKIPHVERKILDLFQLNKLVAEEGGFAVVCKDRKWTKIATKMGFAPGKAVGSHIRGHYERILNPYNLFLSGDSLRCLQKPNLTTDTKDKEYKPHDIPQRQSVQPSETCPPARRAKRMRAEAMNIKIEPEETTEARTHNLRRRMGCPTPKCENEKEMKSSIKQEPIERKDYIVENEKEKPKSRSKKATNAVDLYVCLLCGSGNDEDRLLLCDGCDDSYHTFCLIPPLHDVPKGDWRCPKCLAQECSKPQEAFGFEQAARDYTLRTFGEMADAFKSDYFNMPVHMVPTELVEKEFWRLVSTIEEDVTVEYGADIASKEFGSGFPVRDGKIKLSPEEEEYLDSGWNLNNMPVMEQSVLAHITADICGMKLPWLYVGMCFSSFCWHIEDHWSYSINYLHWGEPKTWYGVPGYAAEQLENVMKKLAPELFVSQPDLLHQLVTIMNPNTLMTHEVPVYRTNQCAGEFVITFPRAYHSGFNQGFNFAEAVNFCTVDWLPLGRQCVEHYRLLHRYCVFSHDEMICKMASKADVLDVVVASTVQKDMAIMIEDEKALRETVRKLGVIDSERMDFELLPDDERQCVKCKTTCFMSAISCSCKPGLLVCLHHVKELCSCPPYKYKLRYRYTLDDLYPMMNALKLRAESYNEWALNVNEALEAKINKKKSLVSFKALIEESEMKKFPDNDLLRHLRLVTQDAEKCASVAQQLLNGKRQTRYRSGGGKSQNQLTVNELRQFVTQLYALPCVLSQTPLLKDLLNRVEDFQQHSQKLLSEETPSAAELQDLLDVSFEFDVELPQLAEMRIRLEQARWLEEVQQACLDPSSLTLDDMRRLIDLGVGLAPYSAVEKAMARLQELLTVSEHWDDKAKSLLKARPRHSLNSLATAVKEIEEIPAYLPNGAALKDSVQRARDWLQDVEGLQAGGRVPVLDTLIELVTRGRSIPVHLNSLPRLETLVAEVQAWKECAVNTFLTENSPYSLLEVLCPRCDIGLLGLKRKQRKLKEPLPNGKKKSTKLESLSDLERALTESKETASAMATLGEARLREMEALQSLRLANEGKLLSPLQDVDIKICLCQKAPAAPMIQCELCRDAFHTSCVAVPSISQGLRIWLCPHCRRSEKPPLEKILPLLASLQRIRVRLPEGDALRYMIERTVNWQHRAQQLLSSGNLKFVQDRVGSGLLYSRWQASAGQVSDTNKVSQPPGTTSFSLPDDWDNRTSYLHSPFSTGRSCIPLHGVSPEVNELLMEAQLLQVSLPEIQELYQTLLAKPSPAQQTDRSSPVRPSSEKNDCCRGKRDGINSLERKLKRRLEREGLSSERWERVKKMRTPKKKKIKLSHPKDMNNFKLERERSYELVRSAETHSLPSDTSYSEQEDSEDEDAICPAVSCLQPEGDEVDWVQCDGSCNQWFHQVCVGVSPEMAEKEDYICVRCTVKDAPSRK
Method in brief: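 Coupled FDH/NAD⁺ fluorescence readout. KDM5BΔAP 200 nM final; compound titration, 10 min RT preincubation; substrate mix 12.5 µM H3K4me3, 25 µM 2-OG, 50 µM Fe(II), 100 µM ascorbate, 0.25 mM NAD⁺, 0.25 U/mL FDH; ΔRFU over 30 min.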
In the case of `Cc1c(CCC(=O)N2CCCCC2)c(=O)oc2c(C)c(O)ccc12`, the Potency is reported as inconclusive: 2 µM [inhibitor, full curve, poor fit]. For `CCCN(CC(=O)Nc1ccccc1OC)Cc1c(O)ccc2ccccc12`, the Potency was inconclusive: 12.6 µM [inhibitor, partial curve, poor fit]. For `CC(=O)N1CCCC1c1nnc2n1CCNC2` (stereo unspecified), the Potency was inconclusive: 89.1 µM [inhibitor, partial curve]. `COCCn1c(SC(C)C(=O)c2ccc(Br)cc2)nnc1-c1cccc(C)c1` (stereo unspecified) was tested, and the “activity change, negative = inhibition” value was inactive: 13.3%. With `Cc1ccc(N2CCN(C(=O)c3noc(-c4ccc(F)cc4)n3)CC2)c(C)c1` the Potency was inconclusive: 20 µM [inhibitor, partial curve, poor fit]. `CCN1CCN(CCN2CC3(CCN(C(=O)c4ccc(C)nc4)CC3)OC2=O)CC1` was tested, and the Potency was inconclusive: 12.6 µM [inhibitor, partial curve, poor fit]. For `Cc1nn(CC(=O)NCc2ccccc2)c(=O)c2nc(C(C)C)sc12`, the “activity change, negative = inhibition” value was inactive: -5.5%. In the case of `O=C(CCc1nc(-c2ccncc2)no1)Nc1ccc(N2CCOCC2)cc1`, the “activity change, negative = inhibition” value is reported as inactive: -7.21%. In the case of `CSc1nc(SCC(=O)NCC2CCCO2)c2c3c(sc2n1)CN(C)CC3` (stereo unspecified), the Potency is reported as inconclusive: 28.2 µM [inhibitor, single point]. `O=C(c1cccc(Br)c1)N1CCN(c2cc(-c3ccc(Cl)cc3)[nH]n2)CC1` was tested, and the “activity change, negative = inhibition” value was inactive: -4.47%. In the case of `CNC(=O)CNC(=O)c1cc(-c2cccs2)nc2ccccc12`, the Potency is reported as inconclusive: 28.2 µM [inhibitor, partial curve, poor fit]. In the case of `Fc1ccc(Cc2nc3nccc(-c4ccccc4)n3n2)cc1`, the Potency is reported as active: 28.2 µM. For `CSc1ccccc1NC(=O)c1cc2c(=O)n3ccccc3nc2s1`, the Potency was inconclusive: 31.6 µM [inhibitor, partial curve, poor fit]. In the case of `COc1ccc(NC(=O)CSc2oc(-c3ccc(F)cc3)nc2S(=O)(=O)c2ccc(C)cc2)c(OC)c1`, the Potency is reported as inconclusive: 17.8 µM [inhibitor, single point]. With `COc1ccc2[nH]cc(CCNC(=O)CCNc3nc(Cl)nc4nc[nH]c34)c2c1` the Potency was inconclusive: 31.6 µM [inhibitor, single point]. `CCN(CC)Cc1cc(C(=O)N[C@H](c2cccs2)C2CC(O)C2)c(C)o1` (stereo partly specified) was tested, and the “activity change, negative = inhibition” value was inactive: -14.7%. `COCCn1cnc2ccc(OCc3ccc(C(F)(F)F)cc3)nc2c1=O` was tested, and the “activity change, negative = inhibition” value was inactive: -12.4% [at 86.2 µM]. `CCN1c2cc(C(=O)Nc3ccc(OC)c(Cl)c3)ccc2C(=O)N2CCCCCC21` (stereo unspecified) was tested, and the Potency was inconclusive: 35.5 µM [inhibitor, partial curve, poor fit]. In the case of `CC1=C(C(=O)N2CCCCC2)C(c2cc(Br)ccc2F)C2=C(CCCC2=O)N1` (stereo unspecified), the Potency is reported as inconclusive: 20 µM [inhibitor, partial curve, poor fit]. `O=C(O)C1CC2(CCN(C(=O)NCCc3ccccc3)CC2)CN1` (stereo unspecified) was tested, and the Potency was inconclusive: 10 µM [inhibitor, single point]. In the case of `O=C1NCCCCCN(C(=O)c2ccc3ccccc3n2)[C@H]2CCC[C@@H]12`, the “activity change, negative = inhibition” value is reported as inactive: -1.17%. In the case of `COCC1CN(C(=O)c2ccc3cc[nH]c3c2)CC12CCOCC2` (stereo unspecified), the Potency is reported as inconclusive: 31.6 µM [inhibitor, single point]. `CC(C)c1noc([C@@H]2C[C@H](NS(=O)(=O)c3ccccc3)CN2C)n1` was tested, and the Potency was inconclusive: 31.6 µM [inhibitor, single point]. In the case of `Cc1nn2c(nnc3c(=O)n(-c4cc(Cl)cc(Cl)c4)ccc32)c1-c1ccccc1`, the “activity change, negative = inhibition” value is reported as inactive: 4.33%. For `Cc1c(-c2ccc(Cl)cc2)c(=O)oc2ccc(OS(=O)(=O)c3ccccc3)cc12`, the “activity change, negative = inhibition” value was inactive: -0.15%. In the case of `O=C(c1ccc[nH]1)N1CCC(n2cc(-c3nc(-c4ccccc4)no3)nn2)CC1`, the “activity change, negative = inhibition” value is reported as inactive: 17.4%. With `Cc1ccc2nc(C3CCN(Cc4ccc(-c5cccs5)cc4)CC3)[nH]c(=O)c2c1` the Potency was active: 79.4 µM and active: 28.2 µM. `COCC(=O)N1C[C@H](NC(=O)C(=O)c2cccn2C)[C@@H](C2CC2)C1` was tested, and the “activity change, negative = inhibition” value was inactive: 13.9%. For `CN(C)C[C@@H]1CN(C2CCOCC2)C[C@H]1NC(=O)c1cn(C)cn1`, the Potency was inconclusive: 15.8 µM [inhibitor, single point]. In the case of `CCOc1nccn2c(-c3ccc(CNC(=O)Cn4cnnn4)cc3)cnc12`, the Potency is reported as active: 39.8 µM. `CCc1ccccc1NC(=O)Cn1c(=O)n(CCCCCC(=O)NCc2ccc(C)cc2)c(=O)c2sccc21` was tested, and the Potency was inconclusive: 1.41 µM [inhibitor, full curve, poor fit]. In the case of `Cc1ccc(C)c(C(=O)NCc2nnc3cc(-c4nc(C5CC5)no4)ccn23)c1`, the Potency is reported as active: 14.1 µM. In the case of `O=C(c1c(F)cccc1F)N(Cc1cccc2[nH]ccc12)C1CC1`, the “activity change, negative = inhibition” value is reported as inactive: -9.11%. With `CC(C)(C)OC(=O)N1CCC(NC(=O)c2nc(-c3ccccc3)c3ccccn23)CC1` the Potency was active: 79.4 µM. `CN1CCN(c2nc3c(c(=O)[nH]2)CCN(Cc2ccc(F)cc2F)CC3)CC1` was tested, and the “activity change, negative = inhibition” value was inactive: -5.05%. For `CCc1ccc(NCc2cc3cc4c(cc3n(CC(=O)Nc3ccccc3OC)c2=O)OCCO4)cc1`, the Potency was inconclusive: 3.98 µM [inhibitor, full curve, poor fit]. In the case of `CCOC(=O)N1CCN(Cc2cc(=O)oc3cc(C)ccc23)CC1`, the “activity change, negative = inhibition” value is reported as inactive: -8.13%. `CN(Cc1cccc2[nH]ccc12)C1CCc2nn(CC3CC3)c(=O)n2CC1` (stereo unspecified) was tested, and the Potency was active: 25.1 µM. With `Cc1ccc(CNC(=O)C2CCN(S(=O)(=O)c3cccc4nonc34)CC2)cc1` the Potency was “inactive”. For `CC(CNC(=O)CN1C(=O)NC2(CCOc3ccccc32)C1=O)c1ccccc1` (stereo unspecified), the “activity change, negative = inhibition” value was inactive: 13.5%. With `O=C(O)CCCC(=O)OCCCc1ccccc1` the “activity change, negative = inhibition” value was inactive: 1.82%. For `Cc1nn(-c2ccccc2)c2c1cc1c(=O)[nH]c(=O)nc-1n2-c1cccc(Cl)c1`, the Potency was inconclusive: 2.51 µM [inhibitor, partial curve, poor fit]. In the case of `O=C(NCc1cccnc1)[C@@H]1C[C@@H](O)CN1C1CCN(C(=O)c2ccccc2F)CC1`, the “activity change, negative = inhibition” value is reported as inactive: 23.4%. With `CNC(=O)c1ccc(CN(CC(=O)NC2(C#N)CCCCC2)C2CC2)cc1` the “activity change, negative = inhibition” value was inactive: 20.2%. `COc1ccc(OC)c(CN2CCC3(CC2)OC(=O)N(Cc2ccccc2C#N)C3(C)c2ccccc2)c1` (stereo unspecified) was tested, and the Potency was inconclusive: 39.8 µM [inhibitor, single point]. For `NC1CCCCN(C(=O)CCN2CCc3ccccc32)C1` (stereo unspecified), the Potency was inconclusive: 14.1 µM [inhibitor, partial curve, poor fit].
